From PubChem BioAssay AID504339 (National Center for Advancing Translational Sciences (NCATS), 2011)
The whole screen tested about 390,000 compounds, of which about 17,000 (4.4%) were called active. Inconclusive means that the source gave no clear call. Such entries were picked first, then a sample of the others. Calls come from the whole dose curve; as a rule, active = well fitted inhibition curve with a large enough effect; inconclusive = small, poorly fitted or top-dose-only effect; inactive = no such curve, though single readings can be large or run the other way. A potency beside an inconclusive call is a rough fit, not a confirmed value.

target: Lysine-specific demethylase 4A (Homo sapiens) (UniProt O75164); test: qHTS Assay for Inhibitors of JMJD2A-Tudor Domain; details: AlphaScreen JMJD2A-Tudor / H3K4me3 peptide binding; series mostly up to 114 µM; note: nearly all actives have a fitted effect of over 50% in size
UniProt O75164, sequence (O75164 whole entry, looked up, the tested form may be a part): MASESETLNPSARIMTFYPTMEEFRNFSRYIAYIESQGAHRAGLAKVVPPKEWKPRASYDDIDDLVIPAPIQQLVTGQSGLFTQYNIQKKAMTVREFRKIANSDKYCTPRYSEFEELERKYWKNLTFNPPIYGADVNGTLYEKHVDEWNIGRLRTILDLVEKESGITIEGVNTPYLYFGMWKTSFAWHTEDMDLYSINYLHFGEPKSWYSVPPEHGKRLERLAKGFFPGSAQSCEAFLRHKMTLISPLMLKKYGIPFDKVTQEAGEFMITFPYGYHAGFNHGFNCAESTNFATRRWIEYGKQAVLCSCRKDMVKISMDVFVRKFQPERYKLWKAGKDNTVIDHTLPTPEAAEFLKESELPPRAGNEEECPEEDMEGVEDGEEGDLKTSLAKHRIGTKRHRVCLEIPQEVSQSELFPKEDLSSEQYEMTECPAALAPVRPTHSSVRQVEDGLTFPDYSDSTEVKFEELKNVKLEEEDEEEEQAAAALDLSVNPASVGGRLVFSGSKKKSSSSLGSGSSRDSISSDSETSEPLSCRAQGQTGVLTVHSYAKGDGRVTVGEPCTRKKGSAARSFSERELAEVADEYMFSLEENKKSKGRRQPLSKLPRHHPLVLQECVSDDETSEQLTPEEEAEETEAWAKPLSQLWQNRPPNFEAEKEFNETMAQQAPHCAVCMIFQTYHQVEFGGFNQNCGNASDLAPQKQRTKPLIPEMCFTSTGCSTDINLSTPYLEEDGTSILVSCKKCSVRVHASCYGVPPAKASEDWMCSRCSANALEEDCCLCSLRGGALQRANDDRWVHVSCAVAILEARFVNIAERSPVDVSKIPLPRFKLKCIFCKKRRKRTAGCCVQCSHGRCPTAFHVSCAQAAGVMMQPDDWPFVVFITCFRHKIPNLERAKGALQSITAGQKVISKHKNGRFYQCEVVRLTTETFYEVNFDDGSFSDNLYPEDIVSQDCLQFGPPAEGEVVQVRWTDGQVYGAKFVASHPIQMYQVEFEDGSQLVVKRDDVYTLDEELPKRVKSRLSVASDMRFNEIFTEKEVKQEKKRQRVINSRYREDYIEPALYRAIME
Potency is the fitted concentration of half-maximal effect; tags give direction and shape of the fitted curve.

| SMILES | Potency |
| --- | --- |
| CCc1ccccc1NC(=O)Nc1nnc(N(C)Cc2ccccc2)s1 | inactive |
| Cc1ccccc1NC(=O)c1cccc(S(=O)(=O)Nc2cccc(C(=O)O)c2)c1 | inactive |
| Cc1ccccc1-c1n[nH]c(=S)n1/N=C/c1c(C)nn(-c2ccccc2)c1C | inconclusive: 44.7 µM [inhibitor, single point] |
| CC(=O)N(C)c1ccc(N=Nc2ccc3ncccc3c2)cc1 | inconclusive: 79.4 µM [inhibitor, partial curve] |
| CCN1CCN(c2ccc(S(=O)(=O)N3CCCCC3)cc2NC(=O)COc2ccccc2)CC1 | inconclusive: 79.4 µM [inhibitor, partial curve] |
| COc1ccc(C(=O)Nc2nc3ccc4nc(C)sc4c3s2)cc1 | inconclusive: 44.7 µM [inhibitor, partial curve, poor fit] |
| CCc1c(C)[nH]n(-c2ccc(Oc3ccccc3)c(S(=O)(=O)O)c2)c1=O | active: 56.2 µM |
| Cc1ccsc1/C=N/Nc1nc(=O)[nH]nc1C | inconclusive: 100 µM [inhibitor, partial curve, poor fit] |
| Cc1ccc(NCc2nnc(SCC(=O)N(Cc3ccccc3)C(C)(C)C)o2)c(C)c1 | inconclusive: 15.8 µM [inhibitor, full curve] |
| CN1CCN(C(=O)CCCN2C(=O)/C(=C/c3ccccc3)SC2=S)CC1 | inconclusive: 56.2 µM [inhibitor, partial curve] |
| CC1CCN(C2CCN(C(=O)c3ccccc3F)CC2)CC1 | active: 0.891 µM |
| CCOc1ccc(CCNC(=O)CSc2n[nH]c(N)n2)cc1OCC | active: 17.8 µM |
| CCc1nnc(NS(=O)(=O)c2ccc(NC(=S)NC(=O)/C=C/c3ccc(OC)cc3)cc2)s1 | active: 31.6 µM |
| Cc1ccc(C(=O)OCC(=O)NCc2ccco2)s1 | active: 35.5 µM |
| Cc1nc(Cl)c(C(=O)NC(C)(C)C)c(C)c1Cl | inconclusive: 89.1 µM [inhibitor, single point] |
| COc1ccc2c(Sc3ccccc3)c(C(=O)NCCCN3CCCCC3)[nH]c2c1 | inconclusive: 79.4 µM [inhibitor, single point] |
| CC(=O)c1ccc(S(=O)(=O)N2CCNC(=O)C2)cc1 | inconclusive: 39.8 µM [inhibitor, partial curve] |
| CN(C)S(=O)(=O)c1cccc(NC(=O)CNC2CCCCC2)c1 | active: 22.4 µM |
| CC1CCCc2sc3nc(NCc4ccco4)n4ncnc4c3c21 (stereo not given) | inconclusive: 56.2 µM [inhibitor, partial curve] |
| CCc1ccc(C(=O)NC(=S)Nc2ccc3c(c2)OCCO3)cc1 | inconclusive: 25.1 µM [inhibitor, single point] |
